In the RNAGym collection of RNA variant scans (doi:10.7554/elife.90254) one finds self-cleavage data, which are given here for 167 variants.

The source gives no read counts; variants with many changes may rest on few reads.

B1: LINE1-mini (parent)
chain: GGCAGAGCUCAACACAGCGUGGCAAAGUGGCUGUGGCUAGACUGCC

The series covers variants of B1. The experiment in a line: self-cleavage, relative activity (ratio to wild type); higher = more cleavage; in vitro, sequencing; the parent is a self-cleaving ribozyme.
In the case of C23U U34A A41G C42A, the self-cleavage came to 0.01. Take A25C G30U U32A C46A: the self-cleavage came out at 0.03. The same measure for A24U C31A G40C: 0.07; for C23U A24G C31A U32G: 0.02; for A24C G35A C42A: 0.05. For C23U G29U C46G, the self-cleavage amounted to 2.24.

Take A24C A41C C46A: the self-cleavage was 0.17.

For C23U G30U A39G G44A, the self-cleavage stood at 0.03. The same measure for C23U G29C U34G A39G: 0.02; for A24C C31A U43C G44U: 0.02; for A25C U28C G36U: 0.03. In the case of A24U G33U C37A U43C, the self-cleavage came to 0.03. Next, A24U A26U C31U: 0.04; A24G A26C C31A C45U: 0.32. Next, A24C G27A C45G: 0.11. The same measure for C23U G29C G36A C45A: 0.59; for A25G A26U G35A C42G: 0.01; for A24G C31A C45G: 0.05.

A24C C31U C42U: the self-cleavage is 0.02.

With A25C G33U G40C, the self-cleavage amounted to 0.07. The same measure for A24U A41U C42G: 0.16; for A24U A41U C42U: 0.1.

Regarding A25C G29A G33U A41G, the self-cleavage was 0. Consider C23U U28G G36C A41U, for which the self-cleavage turned out to be 0.22. The same measure for C23U G29U G36C: 0.05. The same measure for A25G G27A U28G G40A: 0.08. On to A25G A26U G27U C42G, for which the self-cleavage is 0.2. As for A25C G30C C46A, the self-cleavage came to 1.06.

Take A24U G36U C37A U43C: the self-cleavage worked out at 0.04. Next, C23U G29A U38A: 0.39; A25C G40A C46A: 0.06. The same measure for A24C C31G G36A: 0.83; for A24G G36C C45G: 0; for A24U A25G U34A: 0.04.

Regarding C23U A25C U38A C46G, the self-cleavage was 0.18. The same measure for A24C A25C C31U C46A: 0.07. As to C23U G30A G33U, the self-cleavage stood at 0.35. Consider A25G A41U C45U, for which the self-cleavage came out at 0.05. The same measure for A25C C31G A39C: 0.31; for A25C C37A C42U: 0.07; for C23U A26U U38C: 0.37. The same measure for C23U G27A G29U U38G: 0; for A24G G27C G29U G30C G40U: 0.04. The same measure for C23U G27U U32G: 0.1. Turning to A24G C31G A41U, the self-cleavage was found to be 0.01.

For A25G A26G C42A, the self-cleavage amounted to 0.03. Next, C23U C42A G44C: 0.01. Next, A24C U28A U34G G40A: 0.26; C23U A24U G35C: 0.15; C23U C31G G36A: 0.05.

Turning to C23U C31G G33U, the self-cleavage amounted to 0.11. The same measure for C23U U32C G33A: 0.17.

On to A24C U28C C42G, for which the self-cleavage turned out to be 0.03. On to A24G G36C G40C, for which the self-cleavage came to 0.05. The same measure for C23U A25U U32A G33A: 0.03; for A24C A25C G33U A39G: 0.05. A25C C31U G35U: the self-cleavage amounted to 0.01.

With A25C U28A G30A U34C, the self-cleavage worked out at 0.05.

Consider A25G C31G C45A, for which the self-cleavage worked out at 0.02. Next, C23U G27A U34A G40U: 0.08; A24U C31U A39U: 0.03.

With C23U G29A G35A G40A, the self-cleavage was 0.06. Turning to A25C G27A C37A C42G G44U C45U, the self-cleavage came to 0. The same measure for C23U C31G G33U A41G C42A C45G: 0.01; for A25G A26U G44U: 0.1. The same measure for A24G U32G G44C: 0.12; for A24U C37G A39U: 0.05; for A24U U34A A39C C46U: 0.04. The same measure for A25G C42U C45U: 0.02; for A25G A26G G30U C45U: 0.08. Regarding A24G A26G G27U C31G C45U, the self-cleavage came to 0.01. The same measure for A24G G30A C31A G33A: 0.4; for C23U G30A G36A: 0.56. The same measure for A25G A26G C45U C46U: 0.05; for C23U A25C U43C: 0.11. The same measure for A24C C31U G33U: 1.02; for A24U U34G C46G: 0.01. Regarding C23U G29U C42A, the self-cleavage came out at 0.1. Next, A25G A26U U43C: 0.15; C23U G40A C46U: 0.03; C23U U28C U34A: 0.11. As for C23U A25G G29A G30A U38C C45G, the self-cleavage turned out to be 0.03. Take A24U C31U C42U: the self-cleavage is 0.05.

For the variant A24C U28A G40U C42G, the self-cleavage was found to be 0.02. The same measure for A24U A26U G35A G40U: 0.01; for C23U C42G U43C: 0.03. Next, C23U U28C G35U: 0.11; A25C G27A C37A C42G: 0.01; A24G G27A A39C G40U U43C C45A C46G: 0.01. For the variant A25C G27A C46A, the self-cleavage was 0.26. On to C23U U28G G29A U32A, for which the self-cleavage is 0.87.

On to A24G U34G A41G, for which the self-cleavage came out at 0.03. Next, C23U A26G C37A A39U A41U: 0.33.

As for C23G U38C G40U, the self-cleavage was 0.11.

Take A24C A25G C31U: the self-cleavage is 0.11. The same measure for A25C U32G C37A G44C: 0.04; for A24G C42G G44U: 0.02. The same measure for A24G C31U G33U U43G: 0.43. As for C23U U28A G30A, the self-cleavage came to 1.7. Next, A24U U32G U38C: 0.06; C23U G30A C31U C37A G44U: 2.26. The same measure for C23U U43A G44C: 0.03. For the variant A24U A26G G29C G40C, the self-cleavage worked out at 0.02. The same measure for C23U G27A G30U: 1.28; for C23U G35U C45A: 0.14. The same measure for C23U U32C G44A: 0.14; for A24G G27C G29C: 0.11; for A25G A26G G33U: 0.18. The same measure for A24G A26U C46A: 0.56; for C23U G27A U32G G35C: 0.05.

Consider C23U C31A U43G, for which the self-cleavage worked out at 0. Next, C23U G36A C46G: 0.08.

Turning to C23U A25U U43A G44C, the self-cleavage came out at 0.3. The same measure for C23U U28G C31U G35A G36U C42U: 0.08. The same measure for C23U C31G G36A A39G G44C: 0.02; for A25C U43C G44A: 0.08. The same measure for A24U A41C G44A: 0.05.

Regarding A24G U28A C37U, the self-cleavage came to 0.07.

With A25C A26U U28A G33U, the self-cleavage came to 0.24. Next, C23U G27A G30A G44C: 0.74; A24U G30C G40C A41U C45G: 0.03; C23U A25C C45A: 0.13. Next, A25C A26U C31A: 0.01; A24G A25G G30A: 2.82. Next, A24U G44U C46U: 0.07; A25G C31A C37G: 0.02; A24U A26G C42A G44U: 0.07. Consider C23U C37G A39U, for which the self-cleavage worked out at 0.02.

Consider A25C U43G C46U, for which the self-cleavage is 0.07. Regarding A24G A26U U28G G40A C42A, the self-cleavage stood at 0. The same measure for A25C U34A A41U: 0.04. The same measure for C23U U34C U38G: 0.01; for A24U G27C G29A: 1.77; for C23U G30A U32G G35C: 0.04. Next, C23U C31U C42U: 0.08; A24G C31U A41U: 0.1; A24C A26G G33C G36C C45A: 0.02.

Turning to A25C G27A U28A U32C, the self-cleavage amounted to 0.27.

For the variant A24G G29A G35C, the self-cleavage was 0.09. Next, C23U A25C G36A: 0.08. For the variant A24G G30U U38C A39G G44U, the self-cleavage is 0.04.

In the case of A24U A25C C37G, the self-cleavage was 0.07. Next, A24U A25C C37A: 0.09. The same measure for A25C U32G C46A: 0.18; for A24G C31A U34A: 0.01. Next, A25C G36A G40U: 0.13; A24U G35A A41U: 0.08. As for A24U G36C C42U, the self-cleavage was found to be 0. The same measure for C23U A25U U32A: 0.17; for A24G A39U A41G: 0.2; for C23U G30U U34G G36C C46A: 0.03.

Take A24U U32A C46G: the self-cleavage was 0.02. The same measure for A24G G29A A41G C42U: 0.06. Next, A24C G35C G36A: 0.01; C23U A26C G29A: 0.79. As to A24C A25U U43C, the self-cleavage turned out to be 0.17. The same measure for A24G A25U U32C C46U: 0.12.

With C23U U32C C45G, the self-cleavage was 0.03. As to A25C G33A C45G, the self-cleavage turned out to be 0.05. Next, A24U G27C C46G: 0.39; A24U G27C C46A: 1.55; A24G G30U C46U: 0.56.

With A24G G30U C46A, the self-cleavage was 1.39. In the case of A24U U28C U38C G44C, the self-cleavage came out at 0.23. The same measure for C23U A25G G40A: 0.16.

As to A24C U32G G40C C42U, the self-cleavage was 0.02.

As for A24C A39C A41G, the self-cleavage amounted to 0.03.
